Hit rate of the full screen: of about 310,000 compounds, about 2,200 (0.71%) showed an effect of 50% or more. Effects have a minus sign here. Some of the results follow.
Each compound was assayed against human ether-à-go-go-related gene (hERG) potassium channel (human, UniProt Q12809) (assay: primary screen, population patch clamp on CHO cells stably expressing hERG).
human ether-à-go-go-related gene (hERG) potassium channel, sequence (Q12809 whole entry, looked up): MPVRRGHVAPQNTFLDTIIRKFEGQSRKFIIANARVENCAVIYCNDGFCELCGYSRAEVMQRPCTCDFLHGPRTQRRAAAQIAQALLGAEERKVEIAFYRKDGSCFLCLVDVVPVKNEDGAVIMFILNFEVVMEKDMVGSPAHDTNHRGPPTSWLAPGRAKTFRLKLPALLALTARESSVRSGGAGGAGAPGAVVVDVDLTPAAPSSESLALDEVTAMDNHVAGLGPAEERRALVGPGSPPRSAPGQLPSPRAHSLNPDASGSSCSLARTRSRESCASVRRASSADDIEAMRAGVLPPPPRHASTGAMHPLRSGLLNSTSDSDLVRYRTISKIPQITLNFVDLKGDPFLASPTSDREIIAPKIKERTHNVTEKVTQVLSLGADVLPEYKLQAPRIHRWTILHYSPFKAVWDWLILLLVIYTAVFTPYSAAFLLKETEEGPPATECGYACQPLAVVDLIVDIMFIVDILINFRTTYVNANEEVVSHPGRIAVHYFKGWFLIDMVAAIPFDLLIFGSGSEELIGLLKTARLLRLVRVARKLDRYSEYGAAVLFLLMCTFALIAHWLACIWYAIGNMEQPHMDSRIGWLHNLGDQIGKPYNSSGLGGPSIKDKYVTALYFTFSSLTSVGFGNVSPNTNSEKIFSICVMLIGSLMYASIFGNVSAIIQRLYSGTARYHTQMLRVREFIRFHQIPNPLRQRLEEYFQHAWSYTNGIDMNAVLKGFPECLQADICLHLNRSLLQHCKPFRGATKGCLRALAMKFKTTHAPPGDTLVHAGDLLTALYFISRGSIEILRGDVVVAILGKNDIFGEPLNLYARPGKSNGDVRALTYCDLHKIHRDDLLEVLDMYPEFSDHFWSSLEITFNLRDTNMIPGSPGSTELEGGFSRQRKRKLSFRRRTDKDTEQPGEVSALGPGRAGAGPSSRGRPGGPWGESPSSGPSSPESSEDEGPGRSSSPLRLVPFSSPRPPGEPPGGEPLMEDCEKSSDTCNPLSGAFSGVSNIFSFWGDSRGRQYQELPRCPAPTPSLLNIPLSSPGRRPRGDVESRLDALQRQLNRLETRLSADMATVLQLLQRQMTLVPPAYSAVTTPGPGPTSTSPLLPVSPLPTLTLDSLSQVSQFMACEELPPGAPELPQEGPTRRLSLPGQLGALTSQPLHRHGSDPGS

Structure (SMILES)	hERG current change (%, negative = inhibition) at 1uM
CCC(C)(C)NC(=O)C(c1ccc(OC)cc1)N(C(=O)CCC(=O)Nc1cc(C)on1)C(C)(C)C (stereo not drawn)	5.18%
CC1CN(CC(=O)Nc2ccccc2Sc2ccccc2)CC(C)O1 (stereo not drawn)	-7.58%
CC(NC(=O)CSc1ncccn1)c1ccccc1 (stereo not drawn)	3.48%
O=C1Nc2ccccc2C1Cc1nc2ccccc2c(=O)n1-c1ccccc1 (stereo not drawn)	13.6%
COc1cccc(N2CCN(C(=O)c3cn(Cc4ccccc4)nc3-c3cccnc3)CC2)c1	0.728%
Cc1ccc(/C(O)=C2/C(=O)C(=O)N(Cc3cccnc3)C2c2ccccn2)cc1 (stereo not drawn)	12.5%
COc1cccc(CSc2ccc(S(=O)(=O)N3CCOCC3)cc2C(=O)NCC2CCCO2)c1OC (stereo not drawn)	9.75%
O=C(O)CSCC(=O)N1CCN(S(=O)(=O)c2cc(Cl)cc(Cl)c2)CC1	13.5%
O=c1c2ccccc2nc(COc2ccccc2)n1/N=C/c1c[nH]c2ccccc12	21.6%
COc1ccc2nc(NC(=O)c3ccc(Br)s3)sc2c1	17.7%
Br.CCCCCCn1c2c(c(=N)c3c1CCC3)CCC2	-54%
CCO[C@H]1OC(C(=O)O)=C[C@@H](C2CC2)[C@@H]1CCCO	8.98%
CCCCn1nnnc1NCc1cccs1	-5.45%
N#C/C(=C\c1ccc(N2CCOCC2)o1)c1ccccc1	14.7%
O=C1S/C(=C/c2ccccc2)C(=O)N1CC(O)Cn1c2ccccc2c2ccccc21 (stereo not drawn)	10.4%
O=C1c2ccccc2-n2c1nc1ccccc1c2=O	13%
CCN1C=C(C(=O)OC)C(c2cccc(OC)c2OC)C(C(=O)OC)=C1	8.22%
CN(C)c1ccnc(-n2cccc2/C=N/OCc2ccc(F)cc2Cl)c1C#N	8.59%
COC(=O)c1[nH]c2cccc(Cl)c2c1NC(=O)CN1CCCCC1C (stereo not drawn)	9.88%
COc1cc(NC(=O)CN2CCC(C)CC2)c(C)cc1[N+](=O)[O-]	10.6%
COC(=O)c1sccc1NC(=O)Nc1ccc(OC)cc1	13.1%
CC(C)Cc1nnc(NC(=O)CCC(=O)N2CCC(C)CC2)s1	7.51%
Cc1ccc(CC2CC(=O)N(C(Cc3ccccc3)C(=O)O)C2=O)cc1 (stereo not drawn)	16.8%

Structure (SMILES)	hERG current change (%, negative = inhibition) at 1uM
CCOc1ccc(CCNC(=O)COC(=O)/C=C/c2ccco2)cc1OCC	15.9%
Cc1ccc(NC(=O)C(Cc2ccccc2)NC(=O)OCc2ccccc2)cc1C (stereo not drawn)	3.75%
O=C(NCC(=O)N(c1ccccc1)C(C(=O)NC1CCCCC1)c1ccncc1)c1ccco1 (stereo not drawn)	7.91%
CCN1CCN(Cc2ccc(NC(=O)Nc3ccccc3Cl)cc2)CC1	5.87%
Cc1ccc(C(=O)O/N=C/c2c(Cl)n(C)c3ccccc23)cc1	7.26%
COc1ccc(NC(=O)N2CCc3cc(OC)c(OC)cc3C2)cc1	9.53%
CCCCN1CC[C@H]2C=CC[C@@H](C(=O)N3CCOCC3)[C@H]2C1=O	19.6%
Cc1nc2c3ccccc3nc(NNC(=O)CCC(=O)NC3CCCC3)n2n1	-25.4%
C=CCNC(=O)c1onc(CSc2ccc(F)c(F)c2)c1C(=O)O	24.7%
CC1=[N+](C)N(c2ccccc2)C(=O)C1N=Cc1c(Cl)cccc1Cl (stereo not drawn)	-6.43%
O=c1c2ccccc2nc(-c2ccco2)n1-c1ccc(Br)cc1	9.62%
O=C1/C(=C\c2cc([N+](=O)[O-])ccc2O)SC(=S)N1Cc1ccc(Cl)cc1	27.5%
Cc1cc(C)c2cc(C)c3nnc(SCC(=O)NCc4ccc5c(c4)OCO5)n3c2c1	13.1%
CCC(Sc1nc2cc(OC)c(OC)cc2c(=O)n1CCc1ccc(OC)c(OC)c1)C(=O)NCCOC (stereo not drawn)	11.7%
CC1(c2nnc(-c3ccc(Cl)cc3)o2)CC(c2cccc(Cl)c2)=NO1 (stereo not drawn)	15.3%
Cc1cc(C)c(C(=O)OCCNC(=O)c2cccnc2)cc1C	9.66%
COc1ccccc1NC(=O)CSc1sc2c(O)cc(=O)[nH]c2c1C#N	1.74%
Cc1cccc(NC(=O)COC(=O)c2ccccc2SCC(=O)N2CCCC2)c1	0.686%
COc1ccc(CC(CC(=O)O)C(=O)Nc2ccccc2)cc1 (stereo not drawn)	8.11%
CC(OC(=O)c1ccc(-n2cnnn2)cc1)C(=O)Nc1ccccc1F (stereo not drawn)	-0.0303%
C=CCn1c(SCC(=O)CC(=O)OCC)nc2cc(C(=O)N3CCC(C(N)=O)CC3)ccc2c1=O	13.1%
CCCCOc1ccccc1/C=N/NC(=O)CC#N	11.3%
